The source of these data is PMC12820563, “FoxP3 forms a head-to-head dimer in vivo and stabilizes its multimerization on adjacent microsatellites”.

The list shows a part of the results.

The target in the assay is T1, MBP-FoxP1dN (Mus musculus, UniProt P58462 326-579).
T1 sequence: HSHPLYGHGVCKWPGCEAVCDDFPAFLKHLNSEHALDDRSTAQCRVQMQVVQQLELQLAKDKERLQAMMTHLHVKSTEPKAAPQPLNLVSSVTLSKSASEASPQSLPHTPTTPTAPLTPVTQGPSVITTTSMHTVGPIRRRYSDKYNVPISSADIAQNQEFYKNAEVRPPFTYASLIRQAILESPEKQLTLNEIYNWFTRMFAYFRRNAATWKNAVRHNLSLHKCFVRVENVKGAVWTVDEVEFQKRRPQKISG
Nature of the assay: PD-seq (MBP pull-down with sequencing); 20 mM Tris-HCl pH 7.5, 100 mM NaCl, 1.5 mM MgCl2, 0.4 uM protein, 0.1 uM dsDNA library, 30 min, room temperature, amylose pull-down; high values mean tight binding. The settings on record: protein: recombinant; tags: His6-MBP; chain copies: 2; dsDNA, one strand shown. The procedure, abridged:
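E. coli-expressed mouse FoxP3 or FoxP1 fragment, N-terminus removed and tagged with His6-MBP, was used at 0.4 µM against 0.1 µM of a Klenow-filled degenerate double-stranded DNA library. After 30 min at room temperature in Tris pH 7.5 buffer with NaCl and MgCl2, complexes were pulled down on amylose resin and washed three times. Binding is pull-down over input reads-per-million enrichment from pooled replicates of the proteinase K-released, PCR-barcoded, Illumina-sequenced DNA.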
As to “GATGATTGTTCTCCCAGCTGATGAATTCAGCGCTTCGAGTAAACAAATTTTCCTAATCTTTCTGTTCAAGCGCCATCTAC”, the binding signal is 0.896 RPM ratio (pull-down/input).
With “GATGATTGTTCTCCCAGCTGATGAATTGAACCCTTCGAGTAAACAAATTTTCCTAATCTTTCTGTTCAAGCGCCATCTAC” the figure was 0.799 RPM ratio (pull-down/input); with “GATGATTGTTCTCCCAGCTGATGAATTGCGGTATTCGAGTAAACAAATTTTCCTAATCTTTCTGTTCAAGCGCCATCTAC”, 1.11 RPM ratio (pull-down/input); with “GATGATTGTTCTCCCAGCTGATGAATTGATTGAATCGAGTAAACAAATTTTCCTAATCTTTCTGTTCAAGCGCCATCTAC”, 1.08 RPM ratio (pull-down/input).
Then “GATGATTGTTCTCCCAGCTGATGAATTCTTATATTCGAGTAAACAAATTTTCCTAATCTTTCTGTTCAAGCGCCATCTAC”, with 1.05 RPM ratio (pull-down/input).
With “GATGATTGTTCTCCCAGCTGATGAATTAGAAAGCTCGAGTAAACAAATTTTCCTAATCTTTCTGTTCAAGCGCCATCTAC” the figure was 0.893 RPM ratio (pull-down/input); with “GATGATTGTTCTCCCAGCTGATGAATTGCCTGAGTCGAGTAAACAAATTTTCCTAATCTTTCTGTTCAAGCGCCATCTAC”, 0.852 RPM ratio (pull-down/input); with “GATGATTGTTCTCCCAGCTGATGAATTAGAAATCTCGAGTAAACAAATTTTCCTAATCTTTCTGTTCAAGCGCCATCTAC”, 0.926 RPM ratio (pull-down/input).
Consider “GATGATTGTTCTCCCAGCTGATGAATTACGCCAATCGAGTAAACAAATTTTCCTAATCTTTCTGTTCAAGCGCCATCTAC”, for which the binding signal is 1.06 RPM ratio (pull-down/input).
With “GATGATTGTTCTCCCAGCTGATGAATTATGGGAATCGAGTAAACAAATTTTCCTAATCTTTCTGTTCAAGCGCCATCTAC” the figure was 0.965 RPM ratio (pull-down/input); with “GATGATTGTTCTCCCAGCTGATGAATTTCACACATCGAGTAAACAAATTTTCCTAATCTTTCTGTTCAAGCGCCATCTAC”, 1.02 RPM ratio (pull-down/input); with “GATGATTGTTCTCCCAGCTGATGAATTGAAAGAATCGAGTAAACAAATTTTCCTAATCTTTCTGTTCAAGCGCCATCTAC”, 0.968 RPM ratio (pull-down/input).
Then “GATGATTGTTCTCCCAGCTGATGAATTGTCTACCTCGAGTAAACAAATTTTCCTAATCTTTCTGTTCAAGCGCCATCTAC”, with 1.01 RPM ratio (pull-down/input); and “GATGATTGTTCTCCCAGCTGATGAATTACGACACTCGAGTAAACAAATTTTCCTAATCTTTCTGTTCAAGCGCCATCTAC”, with 1.01 RPM ratio (pull-down/input).
For “GATGATTGTTCTCCCAGCTGATGAATTCACGATCTCGAGTAAACAAATTTTCCTAATCTTTCTGTTCAAGCGCCATCTAC”, the binding signal is 0.84 RPM ratio (pull-down/input).
Then “GATGATTGTTCTCCCAGCTGATGAATTGCTTCGTTCGAGTAAACAAATTTTCCTAATCTTTCTGTTCAAGCGCCATCTAC”, with 1.03 RPM ratio (pull-down/input); and “GATGATTGTTCTCCCAGCTGATGAATTCTTGTTCTCGAGTAAACAAATTTTCCTAATCTTTCTGTTCAAGCGCCATCTAC”, with 0.854 RPM ratio (pull-down/input).
Then “GATGATTGTTCTCCCAGCTGATGAATTTGGCTGCTCGAGTAAACAAATTTTCCTAATCTTTCTGTTCAAGCGCCATCTAC”, with 0.86 RPM ratio (pull-down/input).
Then “GATGATTGTTCTCCCAGCTGATGAATTATCGGGTTCGAGTAAACAAATTTTCCTAATCTTTCTGTTCAAGCGCCATCTAC”, with 0.892 RPM ratio (pull-down/input).
For “GATGATTGTTCTCCCAGCTGATGAATTCCCGTAATCGAGTAAACAAATTTTCCTAATCTTTCTGTTCAAGCGCCATCTAC”, the binding signal was 1.19 RPM ratio (pull-down/input).
Consider “GATGATTGTTCTCCCAGCTGATGAATTTATTCTATCGAGTAAACAAATTTTCCTAATCTTTCTGTTCAAGCGCCATCTAC”, for which the binding signal was 1.16 RPM ratio (pull-down/input).
With “GATGATTGTTCTCCCAGCTGATGAATTCGGAACTTCGAGTAAACAAATTTTCCTAATCTTTCTGTTCAAGCGCCATCTAC” the figure was 0.797 RPM ratio (pull-down/input); with “GATGATTGTTCTCCCAGCTGATGAATTCATTGTATCGAGTAAACAAATTTTCCTAATCTTTCTGTTCAAGCGCCATCTAC”, 1.18 RPM ratio (pull-down/input).
Then “GATGATTGTTCTCCCAGCTGATGAATTAGAAATATCGAGTAAACAAATTTTCCTAATCTTTCTGTTCAAGCGCCATCTAC”, with 0.961 RPM ratio (pull-down/input).
With “GATGATTGTTCTCCCAGCTGATGAATTACACCAATCGAGTAAACAAATTTTCCTAATCTTTCTGTTCAAGCGCCATCTAC” the figure was 1.34 RPM ratio (pull-down/input); with “GATGATTGTTCTCCCAGCTGATGAATTTATAGCGTCGAGTAAACAAATTTTCCTAATCTTTCTGTTCAAGCGCCATCTAC”, 1.02 RPM ratio (pull-down/input).
“GATGATTGTTCTCCCAGCTGATGAATTCTCGGTGTCGAGTAAACAAATTTTCCTAATCTTTCTGTTCAAGCGCCATCTAC”: the binding signal is 0.871 RPM ratio (pull-down/input).
With “GATGATTGTTCTCCCAGCTGATGAATTTCTGAACTCGAGTAAACAAATTTTCCTAATCTTTCTGTTCAAGCGCCATCTAC” the figure was 0.856 RPM ratio (pull-down/input); with “GATGATTGTTCTCCCAGCTGATGAATTCCATTCATCGAGTAAACAAATTTTCCTAATCTTTCTGTTCAAGCGCCATCTAC”, 0.873 RPM ratio (pull-down/input).
Take “GATGATTGTTCTCCCAGCTGATGAATTCAACAGGTCGAGTAAACAAATTTTCCTAATCTTTCTGTTCAAGCGCCATCTAC”: the binding signal was 0.93 RPM ratio (pull-down/input).
Then “GATGATTGTTCTCCCAGCTGATGAATTAATTGATTCGAGTAAACAAATTTTCCTAATCTTTCTGTTCAAGCGCCATCTAC”, with 1.04 RPM ratio (pull-down/input); and “GATGATTGTTCTCCCAGCTGATGAATTCCCCCACTCGAGTAAACAAATTTTCCTAATCTTTCTGTTCAAGCGCCATCTAC”, with 0.853 RPM ratio (pull-down/input).
